Measurements: PMC8017931
Results are given in words; binding and its absence hold for the method and conditions named. Binding seen in cells or lysates may run through a third protein. Sequences can lack the tags named with a protein.

By UniProt entry, the sequences of proteins in these tests, tags left out.
UniProt O00429: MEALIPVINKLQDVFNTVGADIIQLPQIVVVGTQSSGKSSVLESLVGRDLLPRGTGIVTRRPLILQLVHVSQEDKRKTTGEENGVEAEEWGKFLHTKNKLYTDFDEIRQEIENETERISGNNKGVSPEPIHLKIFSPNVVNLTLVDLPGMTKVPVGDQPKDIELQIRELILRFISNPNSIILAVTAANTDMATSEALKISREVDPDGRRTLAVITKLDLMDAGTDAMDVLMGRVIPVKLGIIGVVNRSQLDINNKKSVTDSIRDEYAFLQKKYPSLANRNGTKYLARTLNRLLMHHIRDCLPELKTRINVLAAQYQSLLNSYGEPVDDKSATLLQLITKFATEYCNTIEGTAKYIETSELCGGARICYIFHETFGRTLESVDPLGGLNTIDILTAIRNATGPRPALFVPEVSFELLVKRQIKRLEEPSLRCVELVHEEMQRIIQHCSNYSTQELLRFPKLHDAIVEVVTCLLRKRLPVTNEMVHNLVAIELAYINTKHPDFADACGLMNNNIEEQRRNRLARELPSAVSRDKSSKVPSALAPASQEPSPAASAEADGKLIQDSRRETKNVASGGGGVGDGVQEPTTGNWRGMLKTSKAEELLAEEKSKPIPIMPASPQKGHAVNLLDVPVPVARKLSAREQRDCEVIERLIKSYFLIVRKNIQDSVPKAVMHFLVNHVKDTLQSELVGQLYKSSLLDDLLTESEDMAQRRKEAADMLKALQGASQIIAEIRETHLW

Molecular target: T1, FLAG-tagged full length ARMC12 (armadillo repeat-containing 12) (mouse) (UniProt Q80X86)
T1 sequence: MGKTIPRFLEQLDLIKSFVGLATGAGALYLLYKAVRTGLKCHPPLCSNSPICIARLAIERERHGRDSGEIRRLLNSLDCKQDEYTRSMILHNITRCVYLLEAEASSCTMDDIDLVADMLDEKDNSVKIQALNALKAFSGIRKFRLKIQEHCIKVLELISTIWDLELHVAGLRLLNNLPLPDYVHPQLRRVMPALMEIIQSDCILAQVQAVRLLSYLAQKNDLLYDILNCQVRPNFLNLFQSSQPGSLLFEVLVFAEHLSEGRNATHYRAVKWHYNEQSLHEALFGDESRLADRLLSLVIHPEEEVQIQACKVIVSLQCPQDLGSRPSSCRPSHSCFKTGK
Experiment: co-IP; lysates of HEK293T cells transfected with FLAG-tagged ARMC12 (full length or truncated); immunoprecipitation with anti-FLAG antibody; immunoblot for the endogenous partner

DNM1L (endogenous, HEK293T) (from UniProt O00429 1-736)
binding: no binding
